# Measurements published in article PMC6919601, “Identification of Plasmodium dipeptidyl aminopeptidase allosteric inhibitors by high throughput screening” (PLoS ONE, 2019).
# The campaign covered roughly 110,000 compounds. About 230 (0.21%) showed an effect of 50% or more. The list shows a part of the results.
# Target: DPAP1 (Plasmodium falciparum, UniProt Q8IIJ9)
# Assay: primary screen, percent inhibition; read by cleavage of a fluorogenic dipeptide substrate; higher = more effect of the substance
# Parameters: species or system P. falciparum D10 trophozoite lysates; single well
# 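Also: 30 min substrate incubation versus DMSO and 10 µM JCP410 controls.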
# Chain of DPAP1 (Q8IIJ9 whole entry, looked up): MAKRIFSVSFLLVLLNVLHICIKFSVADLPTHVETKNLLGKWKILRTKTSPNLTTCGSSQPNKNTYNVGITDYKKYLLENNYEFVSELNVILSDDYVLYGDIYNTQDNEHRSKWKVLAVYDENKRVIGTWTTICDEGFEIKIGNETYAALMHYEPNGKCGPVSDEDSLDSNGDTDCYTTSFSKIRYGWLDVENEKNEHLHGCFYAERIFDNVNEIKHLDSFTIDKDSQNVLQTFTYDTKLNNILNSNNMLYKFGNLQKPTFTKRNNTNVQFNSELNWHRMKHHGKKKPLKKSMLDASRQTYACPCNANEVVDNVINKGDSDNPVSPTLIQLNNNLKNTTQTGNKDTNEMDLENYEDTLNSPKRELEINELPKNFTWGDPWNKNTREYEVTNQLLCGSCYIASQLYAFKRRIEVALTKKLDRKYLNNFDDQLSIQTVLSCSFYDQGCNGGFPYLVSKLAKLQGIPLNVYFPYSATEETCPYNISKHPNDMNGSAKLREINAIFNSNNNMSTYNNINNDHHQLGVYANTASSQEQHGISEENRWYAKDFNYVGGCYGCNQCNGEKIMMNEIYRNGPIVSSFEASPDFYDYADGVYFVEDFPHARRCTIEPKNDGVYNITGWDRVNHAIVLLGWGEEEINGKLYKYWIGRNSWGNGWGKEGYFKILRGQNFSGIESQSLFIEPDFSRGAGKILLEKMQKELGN
row,Structure (SMILES),% Inhibition @ 10 uM [%]
1,COc1ccc(C2CC(c3ccc(Br)cc3)=NN2C(C)=O)cc1 (stereo not drawn),1.67
2,O=S(=O)(c1ccc(Cl)cc1)c1nnn2c1nc(NCC1CCCO1)c1sccc12 (stereo not drawn),-1.68
3,Cc1ccc(NC(=O)COc2ccc(Cl)cc2Cl)cc1O,-3.65
4,Cc1ccc(C2CC(C(F)(F)F)n3nc(C(=O)N(C)Cc4c(C)nn(C)c4C)cc3N2)cc1 (stereo not drawn),2.32
5,COc1cc2c(cc1OC)CC(=O)N(C)CC2,4.98
6,CCOC(=O)c1c(N)sc2c(OC)c(Br)ccc12,-8.11
7,CCc1ccccc1NC(=O)CN(c1ccccc1)S(=O)(=O)c1ccccc1,-9.26
8,COc1cccc(C2C(C#N)=C(N)Oc3[nH]nc(-c4cc(C)sc4C)c32)c1O (stereo not drawn),-0.968
9,Cc1ccccc1S(=O)(=O)Cc1ccc(C(=O)N2CC(C)CC(C)C2)o1 (stereo not drawn),-1.28
10,Nn1c(S)nnc1-n1cccn1,-0.169
11,c1ccc2c(c1)c1ccccc1n2CCCN1CCCCC1,-6.12
12,Cc1nnc(N2CCC(C(=O)N3CCN(C)CC3)CC2)c2nn(-c3ccccc3)c(C)c12,-1.41
13,CC(C)(C)c1ccc(C(=O)N/C(=C/c2ccc(Br)cc2)C(=O)NCC(=O)O)cc1,4.3
14,COc1cc(OC)c(OC)cc1CN1CCN(Cc2ccccc2F)CC1,-1.55
15,COc1ccc(N(C(C)C(=O)N2CCCCC2)S(C)(=O)=O)cc1 (stereo not drawn),1.15
16,Cc1ccc(N2CC(C(=O)NCCc3ccc(Cl)cc3)CC2=O)cc1C (stereo not drawn),-4.82
17,Cc1ccsc1-c1nc(CSCC(=O)N2CCN(Cc3ccccc3)CC2)c(C)o1,-1.05
18,O=C(O)CCCCCNC(=O)c1ccc(Cl)cc1,6.24
19,Cc1ccc(S(=O)(=O)N(CC(=O)N2CCCCCC2)c2ccc(F)cc2)cc1,-2.44
20,CCOC(=O)c1c(C)nc(-c2ccccc2)nc1NC(=O)c1ccccc1,-1.41
21,CC1CCN(C(=O)Cn2ncc3c4ccccc4n(Cc4ccccc4F)c3c2=O)CC1,1.59
22,O=C(CSc1cccc2c(SCC(=O)c3ccccc3)cccc12)c1ccccc1,4.82
23,O=C(NC1CCCC1)C(c1ccccc1)N1CCCC1 (stereo not drawn),-3.78
24,Cc1cccc(-c2nc3s/c(=C\C4=Cc5ccccc5OC4)c(=O)n3n2)c1,2.24
25,CCOC(=O)c1cnc2c(C)c(Cl)ccc2c1NCCCN1CCOCC1,-5.15
26,CCn1c(=O)c2sccc2n2c(CCCC(=O)NC3CCCCCC3)nnc12,-1.04

row,Structure (SMILES),% Inhibition @ 10 uM [%]
1,COc1ccc2c(c1)C1=NN(C(C)=O)C(c3ccc(F)cc3)C1CC2 (stereo not drawn),-4.26
2,COc1ccc(Cl)cc1NC(=O)CC1S/C(=N\c2ccc(F)cc2)N(C)C1=O (stereo not drawn),-0.854
3,Brc1ccc2ncnc(NCCCN3CCOCC3)c2c1,-3.06
4,CC1CCN(C(=O)CSc2nnc(-c3ccc(F)cc3)o2)CC1,-2.8
5,CCN(CC)C(=O)Cn1ncc2c(C)n(Cc3ccccc3F)c(C)c2c1=O,-0.447
6,CCCNc1nc(O)nnc1C,-1.4
7,O=C(Nc1cccc(C(=O)Nc2cccc(Cl)c2)c1)c1ccccc1,0.245
8,C=CCN1CCc2cccc3c2[C@H]1Cc1ccc(O)c(O)c1-3,5.12
9,CCN(CC)C(=O)CSc1nc2ccc(C)cc2cc1C#N,2.36
10,Cc1ccccc1C(=O)N1CCc2c([nH]c3ccccc23)C1,-4.52
11,CCOc1ccccc1/C=C1\N=C(c2ccc(Br)cc2)OC1=O,7.59
12,CCCN(Cc1ccc(C(=O)OC)cc1)CC1CC1,-5.31
13,CC1CC(CC#N)(Cc2ccccc2)C(C)CN1C (stereo not drawn),-2.63
14,CCCNC(=O)C1Sc2nnc(-c3ccccc3)n2NC1c1ccc(F)cc1 (stereo not drawn),1.72
15,Cc1ccc(C)c(CN2CCCN(Cc3cccc(C(F)(F)F)c3)S2(=O)=O)c1,-3.61
16,Cc1ccc(CCNS(=O)(=O)c2ccc3nc(O)ccc3c2)cc1,-6.37
17,O=C(NCCNC1=NS(=O)(=O)c2ccccc21)c1ccc(S(=O)(=O)N2CCCCC2)cc1,-7.7
18,O=C(NCC12CC3CC(CC(C3)C1)C2)c1nn2cccnc2c1Cl,15.8
19,O=C1NC(=O)C(=Cc2ccc(Sc3cccc4ccccc34)o2)C(=O)N1,2.14
20,O=C(NCc1ccccc1)c1cc2n(n1)C(C(F)(F)F)CC(c1ccc(Cl)cc1)N2 (stereo not drawn),2.63
21,O=C(Cn1nnc2sc3c(c2c1=O)CCCC3)c1ccc(Cl)cc1,2.41
22,Cc1onc(-c2ccccc2)c1C(=O)NCCN1CCOCC1,4.84
23,O=C(O)c1ccccc1C(=O)N1CCN(c2ccc([N+](=O)[O-])cc2)CC1,3.61
24,CCOC(=O)C1CCCCN1Cc1ccccc1F (stereo not drawn),1.55
25,COc1ccc(C(C)C)cc1S(=O)(=O)N1CCOCC1,2.79
